# Source: the supplement of paper PMC8728848
# The list shows a part of the results.
# B1: CVN-E41G (protein)
# chain: MHHHHHHENLYFQSGNFSQACYNSAIQGSVLTSTCIRTNGGYNTSSIDLNSVIGNVDGSLKWQGSNFIETCRNTQLAGSSELAAECKTRAQQFVSTKINLDDHIAAIDGTLKYE
# How the values were obtained:
# Test in all cases: glycan array binding signal (z-score within array); higher = stronger binding
# Details in all cases: glycan notation: IUPAC condensed, linker removed; mutation: E41G
# [1] = biological target: Gal(b1-3)GlcNAc(b1-2)Man(a1-3)[Gal(b1-3)GlcNAc(b1-2)Man(a1-6)]Man(b1-4)GlcNAc(b1-4)GlcNAc
# Summary of the method: (§1)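 The Consortium for Functional Glycomics database supplied 3228 glycan arrays, of which those lacking an available protein sequence were dropped. The binding signal, a within-array Z-score, was averaged across arrays of the same protein sequence and across linkers. Negative scores can be read as non-binding.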
# [2] = biological target: Gal(b1-3)GlcNAc(b1-2)Man(a1-3)[Gal(b1-3)GlcNAc(b1-2)Man(a1-6)]Man(b1-4)GlcNAc(b1-4)[Fuc(a1-6)]GlcNAc
# Summary of the method: as §1
# [3] = biological target: Gal(b1-3)GlcNAc(b1-2)Man(a1-3)[GlcNAc(b1-4)][Gal(b1-3)GlcNAc(b1-2)Man(a1-6)]Man(b1-4)GlcNAc(b1-4)GlcNAc
# Summary of the method: as §1
# [4] = biological target: Gal(b1-3)GlcNAc(b1-2)[Gal(b1-3)GlcNAc(b1-6)]Man(a1-6)[Gal(b1-3)GlcNAc(b1-2)Man(a1-3)]Man(b1-4)GlcNAc(b1-4)GlcNAc
# Summary of the method: as §1
# [5] = biological target: Gal(b1-3)GlcNAc(b1-3)Gal(b1-3)GlcNAc
# Summary of the method: as §1
# [6] = biological target: Gal(b1-3)GlcNAc(b1-3)Gal(b1-4)Glc
# Summary of the method: as §1
# [7] = biological target: Gal(b1-3)GlcNAc(b1-3)Gal(b1-4)GlcNAc
# Summary of the method: as §1
# [8] = biological target: Gal(b1-3)GlcNAc(b1-3)Gal(b1-4)GlcNAc(b1-2)Man(a1-3)[Gal(b1-3)GlcNAc(b1-3)Gal(b1-4)GlcNAc(b1-2)Man(a1-6)]Man(b1-4)GlcNAc(b1-4)GlcNAc
# Summary of the method: as §1
# [9] = biological target: Gal(b1-3)GlcNAc(b1-3)Gal(b1-4)GlcNAc(b1-2)[Gal(b1-3)GlcNAc(b1-3)Gal(b1-4)GlcNAc(b1-6)]Man(a1-6)[Gal(b1-3)GlcNAc(b1-3)Gal(b1-4)GlcNAc(b1-2)Man(a1-3)]Man(b1-4)GlcNAc(b1-4)[Fuc(a1-6)]GlcNAc
# Summary of the method: as §1
# [10] = biological target: Gal(b1-3)GlcNAc(b1-3)Gal(b1-4)GlcNAc(b1-3)Gal(b1-4)GlcNAc(b1-2)[Gal(b1-3)GlcNAc(b1-3)Gal(b1-4)GlcNAc(b1-3)Gal(b1-4)GlcNAc(b1-6)]Man(a1-6)[Gal(b1-3)GlcNAc(b1-3)Gal(b1-4)GlcNAc(b1-3)Gal(b1-4)GlcNAc(b1-2)Man(a1-3)]Man(b1-4)GlcNAc(b1-4)[Fuc(a1-6)]GlcNAc
# Summary of the method: as §1
# [11] = biological target: Gal(b1-3)GlcNAc(b1-3)Gal(b1-4)GlcNAc(b1-6)[Gal(b1-3)GlcNAc(b1-3)]Gal(b1-4)Glc
# Summary of the method: as §1
# [12] = biological target: Gal(b1-3)GlcNAc(b1-3)Gal(b1-4)[Fuc(a1-3)]GlcNAc
# Summary of the method: as §1
# [13] = biological target: Gal(b1-3)GlcNAc(b1-3)Gal(b1-4)[Fuc(a1-3)]GlcNAc(b1-6)[Gal(b1-3)GlcNAc(b1-3)]Gal(b1-4)Glc
# Summary of the method: as §1
# [14] = biological target: Gal(b1-3)GlcNAc(b1-3)GalNAc
# Summary of the method: as §1
# [15] = biological target: Gal(b1-3)GlcNAc(b1-6)Gal(b1-4)GlcNAc
# Summary of the method: as §1
# [16] = biological target: Gal(b1-3)GlcNAc(b1-6)GalNAc
# Summary of the method: as §1
# [17] = biological target: Gal(b1-3)GlcNAc(b1-6)[Gal(b1-3)]GalNAc
# Summary of the method: as §1
# Gal(b1-3)GlcNAc6S = biological target: Gal(b1-3)GlcNAc6S
# Summary of the method: as §1
# [18] = biological target: Gal(b1-3)[Fuc(a1-4)]GlcNAc
# Summary of the method: as §1
# [19] = biological target: Gal(b1-3)[Fuc(a1-4)]GlcNAc(b1-2)Man
# Summary of the method: as §1
# [20] = biological target: Gal(b1-3)[Fuc(a1-4)]GlcNAc(b1-2)Man(a1-3)[Gal(b1-3)[Fuc(a1-4)]GlcNAc(b1-2)Man(a1-6)]Man(b1-4)GlcNAc(b1-4)[Fuc(a1-6)]GlcNAc
# Summary of the method: as §1
# [21] = biological target: Gal(b1-3)[Fuc(a1-4)]GlcNAc(b1-3)Gal(b1-3)[Fuc(a1-4)]GlcNAc
# Summary of the method: as §1
# [22] = biological target: Gal(b1-3)[Fuc(a1-4)]GlcNAc(b1-3)Gal(b1-4)[Fuc(a1-3)]GlcNAc
# Summary of the method: as §1
# [23] = biological target: Gal(b1-3)[Fuc(a1-4)]GlcNAc(b1-6)GalNAc
# Summary of the method: as §1
# [24] = biological target: Gal(b1-3)[GlcNAc(b1-6)]GalNAc
# Summary of the method: as §1
# [25] = biological target: Gal(b1-3)[Neu5Ac(a2-6)]GalNAc
# Summary of the method: as §1
# [26] = biological target: Gal(b1-3)[Neu5Ac(a2-6)]GlcNAc(b1-4)Gal(b1-4)Glc
# Summary of the method: as §1
# [27] = biological target: Gal(b1-3)[Neu5Ac(b2-6)]GalNAc
# Summary of the method: as §1
# Gal(b1-4)Gal = biological target: Gal(b1-4)Gal
# Summary of the method: as §1
# [28] = biological target: Gal(b1-4)GalNAc(a1-3)[Fuc(a1-2)]Gal(b1-4)GlcNAc
# Summary of the method: as §1
# [29] = biological target: Gal(b1-4)GalNAc(b1-3)[Fuc(a1-2)]Gal(b1-4)GlcNAc
# Summary of the method: as §1
# Gal(b1-4)Glc = biological target: Gal(b1-4)Glc
# Summary of the method: as §1
# Gal(b1-4)Glc6S = biological target: Gal(b1-4)Glc6S
# Summary of the method: as §1
# Gal(b1-4)GlcNAc = biological target: Gal(b1-4)GlcNAc
# Summary of the method: as §1
# [30] = biological target: Gal(b1-4)GlcNAc(a1-6)Gal(b1-4)GlcNAc
# Summary of the method: as §1
# Gal(b1-4)GlcNAc(b1-2)Man = biological target: Gal(b1-4)GlcNAc(b1-2)Man
# Summary of the method: as §1
# [31] = biological target: Gal(b1-4)GlcNAc(b1-2)Man(a1-3)Man(b1-4)GlcNAc(b1-4)GlcNAc
# Summary of the method: as §1
# [32] = biological target: Gal(b1-4)GlcNAc(b1-2)Man(a1-3)[Gal(b1-4)GlcNAc(b1-2)Man(a1-6)]Man(b1-4)GlcNAc(b1-4)GlcNAc
# Summary of the method: as §1
# [33] = biological target: Gal(b1-4)GlcNAc(b1-2)Man(a1-3)[Gal(b1-4)GlcNAc(b1-2)Man(a1-6)]Man(b1-4)GlcNAc(b1-4)[Fuc(a1-6)]GlcNAc
# Summary of the method: as §1
# [34] = biological target: Gal(b1-4)GlcNAc(b1-2)Man(a1-3)[Gal(b1-4)GlcNAc(b1-2)Man(a1-6)][Gal(b1-4)GlcNAc(b1-4)]Man(b1-4)GlcNAc(b1-4)[Fuc(a1-6)]GlcNAc
# Summary of the method: as §1
# [35] = biological target: Gal(b1-4)GlcNAc(b1-2)Man(a1-3)[Gal(b1-4)GlcNAc(b1-2)Man(a1-6)][GlcNAc(b1-4)]Man(b1-4)GlcNAc(b1-4)[Fuc(a1-6)]GlcNAc
# Summary of the method: as §1
# [36] = biological target: Gal(b1-4)GlcNAc(b1-2)Man(a1-3)[GlcNAc(b1-2)Man(a1-6)]Man(b1-4)GlcNAc(b1-4)GlcNAc
# Summary of the method: as §1
# [37] = biological target: Gal(b1-4)GlcNAc(b1-2)Man(a1-3)[GlcNAc(b1-4)][Gal(b1-4)GlcNAc(b1-2)Man(a1-6)]Man(b1-4)GlcNAc(b1-4)GlcNAc
# Summary of the method: as §1
# [38] = biological target: Gal(b1-4)GlcNAc(b1-2)Man(a1-3)[Man(a1-6)]Man(b1-4)GlcNAc(b1-4)GlcNAc
# Summary of the method: as §1
# [39] = biological target: Gal(b1-4)GlcNAc(b1-2)Man(a1-6)Man(b1-4)GlcNAc(b1-4)GlcNAc
# Summary of the method: as §1
binder,measurement,setting,value
B1,glycan array binding signal (z-score),[1],0.069
same,glycan array binding signal (z-score),[2],-0.141
same,glycan array binding signal (z-score),[3],0.461
same,glycan array binding signal (z-score),[4],0.155
same,glycan array binding signal (z-score),[5],-0.13
same,glycan array binding signal (z-score),[6],-0.117
same,glycan array binding signal (z-score),[7],-0.161
same,glycan array binding signal (z-score),[8],0.006
same,glycan array binding signal (z-score),[9],1.02
same,glycan array binding signal (z-score),[10],0.772
same,glycan array binding signal (z-score),[11],-0.146
same,glycan array binding signal (z-score),[12],-0.132
same,glycan array binding signal (z-score),[13],-0.181
same,glycan array binding signal (z-score),[14],-0.144
same,glycan array binding signal (z-score),[15],-0.189
same,glycan array binding signal (z-score),[16],-0.14
same,glycan array binding signal (z-score),[17],-0.103
same,glycan array binding signal (z-score),Gal(b1-3)GlcNAc6S,-0.17
same,glycan array binding signal (z-score),[18],-0.151
same,glycan array binding signal (z-score),[19],-0.063
same,glycan array binding signal (z-score),[20],0.524
same,glycan array binding signal (z-score),[21],-0.055
same,glycan array binding signal (z-score),[22],-0.151
same,glycan array binding signal (z-score),[23],-0.062
same,glycan array binding signal (z-score),[24],-0.169
same,glycan array binding signal (z-score),[25],-0.077
same,glycan array binding signal (z-score),[26],-0.179
same,glycan array binding signal (z-score),[27],-0.158
same,glycan array binding signal (z-score),Gal(b1-4)Gal,-0.137
same,glycan array binding signal (z-score),[28],-0.183
same,glycan array binding signal (z-score),[29],-0.182
same,glycan array binding signal (z-score),Gal(b1-4)Glc,-0.159
same,glycan array binding signal (z-score),Gal(b1-4)Glc6S,-0.155
same,glycan array binding signal (z-score),Gal(b1-4)GlcNAc,-0.167
same,glycan array binding signal (z-score),[30],-0.181
same,glycan array binding signal (z-score),Gal(b1-4)GlcNAc(b1-2)Man,-0.16
same,glycan array binding signal (z-score),[31],-0.157
same,glycan array binding signal (z-score),[32],-0.166
same,glycan array binding signal (z-score),[33],-0.15
same,glycan array binding signal (z-score),[34],-0.169
same,glycan array binding signal (z-score),[35],-0.165
same,glycan array binding signal (z-score),[36],-0.156
same,glycan array binding signal (z-score),[37],-0.16
same,glycan array binding signal (z-score),[38],-0.04
same,glycan array binding signal (z-score),[39],-0.177
